Source: PubChem BioAssay AID1963576 (National Center for Advancing Translational Sciences (NCATS), 2024)
The whole screen tested about 46,000 compounds, of which about 60 (0.1%) were called active. Roughly 3% stayed inconclusive and do not appear here. Calls come from the whole dose curve; as a rule, active = well fitted inhibition curve with a large enough effect; inconclusive = small, poorly fitted or top-dose-only effect; inactive = no such curve, though single readings can be large or run the other way. This is one part of the list.

Experiment: Primary qHTS assay for Inhibitors of ovarian cancer metastasis using an organotypic tumor microenvironment (TME) model.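 For activity change, negative = inhibition: plate controls were DMSO wells for no effect and tomatine positive control wells for full effect.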 Note: nearly all actives have a fitted effect of over 65% in size.
Conditions: SKOV3ip1-GFP adhesion/invasion on 3D omental model, fluorescence; series mostly up to 45.8 µM; activity change, negative = inhibition: at the top concentration
Method in brief: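 Adhesion/invasion was scored as fixed GFP-labeled SKOV3ip1 cell counts (488/509 nm), normalized to DMSO and tomatine controls. Cancer cells in serum-free medium, with four compound doses (0.36-46 umol/L), sat 2 hr at RT then 16 hr at 37 C on a 48 hr fibroblast/mesothelial/ECM culture.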

Activity change, negative = inhibition, inactive:
COC(=O)c1c(NC(=O)CS(=O)(=O)c2ccc(C)cc2)sc2c1CCCCC2 -8.34%
O=C(c1ccc(Cl)cc1)n1nc(-c2ccccc2)nc1NCc1ccco1 -6.29%
CCCn1c(=N)c(C(=O)NC(C)c2ccccc2)cc2c(=O)n3ccccc3nc21 (stereo not given) 8.89%
Cc1ccc2scc(N3CCCC(C)C3)c(=O)c2c1 (stereo not given) 8.48%
Cn1c(=O)n(C)c2cc(CNCc3ccccc3Cl)ccc21 0.369%
COc1cccc(C(=O)NCc2cn3cccc(C)c3n2)c1 4.63%
Cc1c(Cl)cccc1-n1ncc(C(=O)NC2CCCC2)c1C1CCN(C(=O)OC(C)(C)C)CC1 6.89%
Cc1ccc(NC(=O)N2CCN3CCCCC3C2)cc1C (stereo not given) -3.84%
COc1ccc2c(c1)c1c(c(=O)n(-c3cc(Cl)ccc3C)c(=O)n1Cc1ccc(F)cc1)n2C 3.68%
CC(C)c1ccc(NC(=O)CSC2=Nc3ccccc3C3=NC(CCC(=O)NCc4cccs4)C(=O)N23)cc1 (stereo not given) -1.35%
CCOc1ccc(S(=O)(=O)Nc2cc3c(C(=O)OCc4ccccc4)c(C)oc3c3ccccc23)cc1 -28%
CCOc1ccc(NC(=O)c2nn(C)c3c2COc2ccccc2-3)cc1 4.92%
COc1cccc(NC(=O)CSc2nc(=O)[nH]c3c2CCCC3)c1 -1.31%
COc1ccc(-c2[nH]c(-c3ccc(C)cc3)nc2SCC(=O)NCC2CCCO2)cc1 (stereo not given) -9.33%
CC(=O)c1c(C)n(-c2cccc(Cl)c2)c2ccc(OC(=O)c3ccccc3)cc12 -1.01%
Cc1cc(C)c(-c2n[nH]c3c2C(c2ccccc2F)N(CCO)C3=O)c(O)c1 (stereo not given) 1.06%
COc1ccccc1C(=O)OCc1cc(=O)n2c(C)csc2n1 1.59%
Cc1nc2cccnc2n1-c1cccc(C(=O)NCc2cccc(Cl)c2)c1 -23.9%
CCOc1ccc(-c2cc3nc(C4CCN(C(=O)OC(C)(C)C)CC4)c(C(=O)Nc4cccc(C(F)(F)F)c4)cn3n2)cc1 -5.44%
COc1ccc(Br)cc1CNCc1c(C(=O)O)c(C)n(Cc2ccccc2C)c1C 11.8%
COc1cccc(C(=O)NC2=NC(c3ccccc3F)CC(=O)N2)c1 (stereo not given) -2.2%
COc1cc(Cl)c(NS(=O)(=O)c2cc3[nH]c(=O)c(=O)[nH]c3cc2C)c(OC)c1 2.26%
COc1ccc(CNC(=O)CCc2c(C)nn(-c3ccc(N4CCCC4)nn3)c2C)cc1 -9.92%
CCS(=O)(=O)N1CC(=O)N(c2cc(Cl)ccc2C)C(C)(C(=O)NC2CCCCCC2)C1 (stereo not given) -21.2%
CN1C(=O)C[C@H](C(=O)N[C@@H](Cc2cnc[nH]2)C(=O)N2CCC[C@@H]2C(N)=O)NC1=O -1.49%
CCCCCOC(=O)CSc1nc2sc3c(c2c(=O)n1Cc1ccccc1)CC(C)(CC)OC3 (stereo not given) -1.5%
Cc1cc2c(cc1S(=O)(=O)CCC(=O)N1CCN(c3ccccc3)CC1)OCC(=O)N2 -12.8%
COC(=O)c1ccc(NC(=O)c2c(-c3ccccc3)c(-c3ccccc3)nn(C)c2=O)cc1 -5.69%
O=C(Nc1ccc2c(c1)CCCN2C(=O)c1cccs1)c1ccccc1C(F)(F)F -4.13%
COC1=C(OC)C(=O)C(CC=C(C)CCC=C(C)CCC=C(C)CCC=C(C)CCC=C(C)CCC=C(C)CCC=C(C)CCC=C(C)CCC=C(C)CCC=C(C)C)=C(C)C1=O 4.48%
Cc1cccc(OC(=O)c2snnc2C)c1C -40.6%
CCC(=O)N1c2ccc(S(=O)(=O)CCC(=O)NCc3ccc(OC)cc3)cc2CC1C (stereo not given) -8.73%
CCOC(=O)C1CCN(C(=O)c2ccc(C)c(NC(=O)c3nsc4ccccc34)c2)CC1 2.45%
O=C(Nc1ccc(F)c(F)c1)c1ccc(=O)n(Cc2ccc(F)cc2)c1 -23.4%
CC1=C(C(=O)Nc2cc(C)cc(C)c2)C2(CCCCC2)OC1=O -1.98%
CC(C)c1ccc(S(=O)(=O)NCc2nc3cccnc3n2Cc2ccc(F)cc2)cc1 -6.59%
Cc1cc(C)c(NC(=O)CCN2CCCCC2)c(C)c1 -12.9%
CCc1cccc(C)c1Nc1c(-c2cccs2)nc2ncccn12 17.8%
Cc1cc(C)c(S(=O)(=O)NCC(c2ccco2)S(=O)(=O)c2ccccc2)c(C)c1 (stereo not given) -14.3%
O=S(=O)(Nc1ccc(OC(F)(F)F)cc1)c1ccc(N2CCCCS2(=O)=O)cc1 6.59%
COc1cccc(C2C(=O)N(C3CCCCC3)CC(=O)N2CCc2ccc(OC)c(OC)c2)c1 (stereo not given) 2.53%
Nc1nc(N)c(S(=O)(=O)c2ccccc2)c(Nc2ccccc2)n1 5.82%
Cc1nc2nc(CNC(=O)OC(C)(C)C)nn2c(C)c1CCC(=O)NCc1ccccc1Cl 2.03%
COc1ccc(CCNC(=O)CCc2c(C)c3ccc(O)c(C)c3oc2=O)cc1 1.16%
COc1cc(OC)c(NC(=O)CCc2nc(C3=CCN(Cc4cccc(Cl)c4)CC3)no2)cc1Cl -0.277%
Cc1ccc(NC(=O)c2oc3ccccc3c2NC(=O)C2CCCCC2)cc1 -20.3%
COc1ccc(-c2cc(C(=O)Oc3ccc(Br)cc3)c3ccccc3n2)cc1 5.27%
COc1cccc(/C=C/c2nc(C#N)c(N(C)Cc3ccccc3)o2)c1 8.67%
CCCCSc1ncnc2c1sc1nc(N3CCOCC3)c3c(c12)CCCC3 -0.799%
Cc1ccc(NC(=O)NCCc2c(C)nn(C)c2C)c(Cl)c1 -1.68%
COc1cc(C(=O)NCc2ccc3c(c2)CCN3C(=O)c2ccncc2)cc(OC)c1OC 8.05%
Fc1ccc(CNc2nc3c(-c4ccc(F)cc4)nnn3c3ccccc23)cc1 -6.98%
CCOc1ccc(CNC(=O)COc2cc(=O)n(C)c3ccccc23)cc1 5.54%
CC1=C(C(=O)Nc2ccc(C)cc2)C(c2ccccc2Cl)n2nnnc2N1 (stereo not given) -11%
Cc1ccc(NC(=O)c2cc(-c3ccc4c(c3)OCO4)on2)cc1 0.939%
CCC(=O)N1CCc2cc(Br)cc(S(=O)(=O)CCC(=O)NCc3ccccc3)c21 -1.1%
COc1cccc(NC(=O)c2cc(CN3CCOCC3)on2)c1 21%
Cc1cccc2c1-c1sc(C(=O)NCc3ccccc3Cl)cc1CO2 -27.9%
CCCN1CCN(CCCNC(=O)Cn2nc(C)n3c(cc4cc(F)ccc43)c2=O)CC1 -15.1%
COc1cc(NC(=O)c2ccc(C(=O)Nc3cc(OC)c(Cl)cc3OC)cc2)c(OC)cc1Cl 0.469%
O=c1ccc2cc(S(=O)(=O)N3CCCC3)ccc2[nH]1 5.14%
CSc1cccc(NC(=O)CN(C)S(=O)(=O)c2ccc3c(c2)n(C)c(=O)c(=O)n3C)c1 6%
COc1ccccc1CNC(=O)c1c2c(nc3ccccc13)C(=O)N(C1CCCCC1)C2 13.3%
CCOC(=O)C1CCCN(CCC(=O)Nc2ccc(OC)cc2OC)C1 (stereo not given) 2.93%
Cc1ccc(-c2nnc(Nc3ccc(C(N)=O)cc3)c3ccccc23)cc1S(=O)(=O)N1CCCCC1 25.8%
COc1ccc(NC(=O)c2c(C)oc3ccc(O)c(CN4CCN(C)CC4)c23)cc1Cl -0.372%
COc1ccc(CNC(=O)CCc2c(C)nc3c(c2C)c(=O)n(C)c(=O)n3C)cc1 8.3%
O=C(CSc1nc2ccccc2n1Cc1ccc(F)c(Cl)c1)N1CCN(c2ccc(F)cc2)CC1 -18.1%
CCc1ccccc1NC(=O)CC(c1ccc(F)cc1)N1Cc2ccccc2C1=O (stereo not given) -7.21%
CCOC(=O)c1cc2c(=O)n3ccccc3nc2n(Cc2ccco2)c1=NC(=O)c1cc(C)cc(C)c1 3.45%
COC(=O)c1ccc(NC(=O)c2nn(C)c3c2CS(=O)(=O)c2ccccc2-3)cc1 -6.29%

outcome, inactive:
CCCOC(=O)c1c(-c2ccccc2)c(-c2ccccc2)nn(C)c1=O
CCSc1ncc(Cl)c(C(=O)Nc2cc(C)ccc2C)n1
Cc1ccc(-n2c(=O)c3c4c(sc3n(CC(=O)C(C)(C)C)c2=O)CCCCC4)cc1C
COc1ccc(-c2nc3scc(CCNS(=O)(=O)c4cccs4)n3n2)cc1
CCOC(=O)Cc1ccc(NC(=O)Nc2nnc(N3CCCCC3C)s2)cc1 (stereo not given)
CCOC(=O)c1ccc(NC(=O)Nc2cc3c(cc2N2CCCCC2)n(CC)c(=O)n3CC)cc1
CCc1ccc(Nc2nc(-c3cc4cccc(OC)c4oc3=O)c(CC)s2)cc1
CCCN(C(=O)c1cc2c(s1)-c1ccccc1OC2)c1ccc(C(C)C)cc1
CCC(=O)N1CCc2cc(Br)cc(S(=O)(=O)NCCc3ccc(C)cc3)c21
Cc1ccc(NC(=O)C2CCC(CNS(=O)(=O)c3cccs3)CC2)cc1C (stereo not given)
COc1ccc(NC(=O)COCc2cc(-c3ccco3)on2)cc1Cl
O=C(Cn1c(=O)c2ccccc2n(CC(=O)Nc2ccccc2F)c1=O)NCCc1ccccc1
CCc1ccc(-n2c(=O)c3sc4ccccc4c3n(CC(=O)NC3CCCC3)c2=O)cc1
CCc1ccc2c(c1)c(=O)c(S(=O)(=O)c1ccc(F)cc1)cn2CC(=O)Nc1ccccc1OC
COCCCNC(=O)CN1C(=O)c2c(c3ccccc3n2C)C1c1ccc(OC)cc1 (stereo not given)
COc1ccc(-c2noc(CSCC(=O)Nc3ccc(C)cc3Br)n2)cc1OC
Cc1nn2c(=O)cc(COC(=O)c3ccc(C(C)(C)C)cc3)nc2s1
COc1cccc(N2CCN(S(=O)(=O)c3ccc(-c4cnc(C5CC5)o4)cc3)CC2)c1
COc1ccc(CCNC(=O)c2ccc(CS(=O)(=O)c3ccc(C)cc3)o2)cc1OC
O=C(Nc1c(C(=O)N2CCN(c3ccc(F)cc3)CC2)oc2ccccc12)c1ccco1
CCc1ccc(NC(=O)CSC2=Nc3ccccc3C3=NC(CCC(=O)NCc4cccs4)C(=O)N23)cc1 (stereo not given)
CCn1cc(C(=O)NCCc2ccccc2)c(=O)c2cc(S(=O)(=O)N3CCOCC3)ccc21
Cc1cccc(-n2ccnc2SCC(=O)Nc2ccccc2C(F)(F)F)c1
COc1cccc(N2C(=O)CSC23C(=O)N(CC(=O)Nc2cc(C)ccc2C)c2ccccc23)c1 (stereo not given)
